Source: the GPR68 mutational scans of Howard et al. (2025)

B1: GPR68, Q15743 (parent)
chain: MGNITADNSSMSCTIDHTIHQTLAPVVYVTVLVVGFPANCLSLYFGYLQIKARNELGVYLCNLTVADLFYICSLPFWLQYVLQHDNWSHGDLSCQVCGILLYENIYISVGFLCCISVDRYLAVAHPFRFHQFRTLKAAVGVSVVIWAKELLTSIYFLMHEEVIEDENQHRVCFEHYPIQAWQRAINYYRFLVGFLFPICLLLASYQGILRAVRRSHGTQKSRKDQIQRLVLSTVVIFLACFLPYHVLLLVRSVWEASCDFAKGVFNAYHFSLLLTSFNCVADPVLYCFVSETTHRDLARLRGACLAFLTCSRTGRAREAYPLGAPEASGKSGAQGEEPELLTKLHPAFQTPNSPGSGGFPTGRLA

Legend:
[1] = variants of: B1; test: cAMP reporter score (Enrich2 score, wild type = 0); higher = more signal; HEK293T, FACS bins
[2] = variants of: B1; test: surface expression score (Enrich2 score, wild type = 0); higher = more signal; HEK293T, FACS bins

Variant	cAMP reporter score ([1]; pH 5.5)	cAMP reporter score ([1]; pH 6)	cAMP reporter score ([1]; pH 6, modulator: ogerin)	cAMP reporter score ([1]; pH 6.5, modulator: ogerin)	surface expression score [2]
S10_M11insGSG	1.44	1.71	2.02	2.29	1.49
A6_D7insGS	-0.167	-0.798	0.033	-0.218	-0.118
D7_N8insG	0.864	1.57	1.27	1.29	0.765
T5_A6insG	-0.184	–	0.078	0.657	0.286
N3H	0.307	-0.434	0.669	-0.759	-0.739
N3F	0.946	-0.046	0.292	0.666	–
N3W	0.201	-0.948	-0.449	-0.917	-0.677
N3R	-0.004	-0.631	-0.084	-0.936	-0.987
N3Q	-0.247	-0.466	-0.175	-0.718	-0.82
N3Y	0.065	-1.01	0.241	-0.512	-0.728
N3L	-0.352	-1.62	-0.464	-0.332	-1.2
N3V	0.413	–	0.124	-0.725	-0.238
N3P	-0.781	0.112	-0.378	-0.843	-0.339
N3K	-0.451	–	-0.488	-0.448	-1.02
N3G	0.591	0.417	0.514	-0.095	-0.286
N3T	-0.623	–	-1.02	0.522	-1.3
N3S	-1.3	–	-1.17	-1.17	-0.922
N3I	-0.717	-1.42	-0.951	-1.29	-0.548
N3M	0.011	-0.745	-0.173	-0.431	-0.966
S10W	1.23	–	0.451	0.559	–
S10V	0.555	-0.302	0.026	-1.29	-0.671
S10N	-0.782	-0.533	-0.71	-0.957	0.155
S10R	0.517	-0.014	0.22	0.252	-0.509
S10A	0.479	-0.13	0.277	0.561	1.09
S10F	-0.726	-1.04	-0.702	-1.02	-0.676

Variant	cAMP reporter score ([1]; pH 5.5)	cAMP reporter score ([1]; pH 6)	cAMP reporter score ([1]; pH 6, modulator: ogerin)	cAMP reporter score ([1]; pH 6.5, modulator: ogerin)	surface expression score [2]
S10E	0.126	-1.05	0.221	-0.492	-0.953
S10Q	-0.969	-0.34	-0.735	-0.251	-1.66
S10P	-0.331	-0.678	-0.287	-0.422	-0.684
S10K	1.08	–	0.903	-0.374	0.191
S10G	-0.24	-0.143	-0.422	-0.706	-1.34
S10M	-0.033	-0.937	-0.104	-0.364	-1.11
S10D	0.005	–	-0.042	0.426	-0.089
S10Y	0.197	0.342	0.233	0.228	-0.734
S10H	0.286	1.36	-0.132	0.05	-0.184
S10T	0.03	0.298	0.164	-0.269	-0.011
S10C	-0.713	-1.76	-0.81	-0.906	-0.97
S10L	-0.801	-0.309	-0.407	-0.005	-0.807
S10I	0.478	-0.44	0.465	0.638	-0.801
C13_T14insG	0.524	-0.363	0.047	-0.27	-0.929
T14_I15insGS	0.932	-0.051	0.137	-0.034	-0.981
T14del	-0.339	-0.742	-0.692	-0.355	-0.471
C13_T14insGS	-0.37	-0.487	-0.365	-0.279	-1.19
S10_M11insG	0.283	0.628	0.418	0.534	0.576
C13_T14del	-0.961	-0.5	-1.75	-0.691	-1.61
S9_S10del	-0.003	0.518	-0.092	0.236	0.112
C13_I15del	-0.98	-0.422	-1.37	-0.718	-1.84
A6_D7insG	0.796	0.827	0.801	0.836	0.461
M11_S12del	-0.482	–	-1.42	–	-0.411
M11_S12insGS	0.354	0.401	1.02	0.49	0.685
I15_D16insGSG	0.469	0.144	0.627	0.608	0.354

Variant	cAMP reporter score ([1]; pH 5.5)	cAMP reporter score ([1]; pH 6)	cAMP reporter score ([1]; pH 6, modulator: ogerin)	cAMP reporter score ([1]; pH 6.5, modulator: ogerin)	surface expression score [2]
A6_D7del	1.33	1.1	1.18	1.54	0.986
I4L	0.304	0.291	0.49	0.788	0.772
I4G	0.672	0.483	0.739	0.448	0.803
I4F	-0.251	-0.403	-0.182	0.127	0.011
I4A	-0.598	0.311	-0.903	-1.08	-0.164
I4C	-0.111	-0.509	0.101	-0.963	-0.253
I4K	0.539	0.271	0.129	0.014	0.512
I4R	0.448	-1.08	0.594	–	0.397
I4W	-1.07	-0.263	-1.06	-0.547	-1.01
I4E	0.231	0.487	0.169	0.804	0.232
I4Y	0.478	0.294	0.589	-0.178	0.471
I4Q	0.27	-0.532	-0.061	0.757	0.379
I4N	0.976	0.667	1.07	0.764	0.608
I4S	0.877	0.942	1.55	1.35	1.07
I4H	0.164	0.549	0.279	-0.059	-0.467
I4V	-0.326	0.349	-0.147	0.105	0.465
I4M	1.22	1.32	0.421	1	-0.555
I4T	-0.208	-0.066	0.027	0.133	-0.157
I4P	-0.619	-0.377	-0.584	-0.993	0.209
I4D	1.17	1.82	0.755	0.733	1.47
D7del	-0.282	-1.25	-0.787	-0.075	-0.544
N8_S9del	-0.71	-0.062	-0.184	-0.847	-1.4
D7_S9del	0.083	-0.052	-0.053	-0.335	-0.854
N3_I4insG	-0.315	0.07	-0.628	-0.36	-1.08
S9_S10insGSG	-0.093	0.02	0.178	0.102	-0.311

Variant	cAMP reporter score ([1]; pH 5.5)	cAMP reporter score ([1]; pH 6)	cAMP reporter score ([1]; pH 6, modulator: ogerin)	cAMP reporter score ([1]; pH 6.5, modulator: ogerin)	surface expression score [2]
I4_T5insG	0.626	–	-0.251	0.262	-0.402
I15_D16del	-0.923	0.165	-0.554	-0.217	-0.897
D16_H17insG	0.014	2.12	0.113	1.17	-0.329
N8del	-0.323	-0.116	-0.595	-1	0.126
T14_I15insGSG	-1.15	-1.13	-1.18	-1.42	-0.992
M11_S12insG	1.51	0.676	1.46	1.1	0.472
M11Y	0.323	0.878	0.924	1.13	0.439
M11P	-0.344	-0.611	-0.855	-0.862	-0.729
M11A	0.173	0.142	0.345	1.36	-0.272
M11D	0.393	0.018	0.421	0.324	0.843
M11I	0.477	0.299	0.419	0.31	1.17
M11V	0.14	0.368	0.272	0.063	0.174
M11G	-0.153	-0.227	-0.044	0.647	-0.424
M11F	0.809	0.915	0.881	1.38	0.511
M11S	-0.533	0.764	-0.711	-0.101	0.666
M11W	0.715	–	0.804	0.437	0.38
M11K	-0.352	0.206	-0.603	0.638	-0.83
M11H	-0.541	-0.245	-0.467	-0.475	-0.777
M11C	-0.285	-0.189	-0.105	-0.198	-0.12
M11T	-0.046	-0.268	0.244	-0.483	0.192
M11L	0.514	0.084	0.291	0.028	0.503
M11R	0.177	0.144	0.749	0.224	-0.222
M11Q	0.844	-0.494	0.645	0.984	0.331
M11E	0.028	0.702	0.594	0.273	0.413
M11N	0.201	-0.37	0.959	1.22	0.721

Variant	cAMP reporter score ([1]; pH 5.5)	cAMP reporter score ([1]; pH 6)	cAMP reporter score ([1]; pH 6, modulator: ogerin)	cAMP reporter score ([1]; pH 6.5, modulator: ogerin)	surface expression score [2]
D7_N8insGS	0.317	1.01	0.447	0.102	0.549
A6del	0.056	0.238	0.432	-0.057	-0.458
S9_M11del	0.229	-0.709	-0.138	-0.802	0.045
I4_T5insGSG	-0.92	0.078	-0.679	-0.783	-0.527
I4del	-1.03	-0.738	-0.771	-0.111	-2.12
N8G	-1.03	-0.882	-0.505	-0.497	-1.61
N8D	0.087	-0.765	–	0.485	-0.518
N8P	0.773	-0.565	0.301	0.272	0.183
N8A	0.464	1.32	0.391	-0.78	–
N8L	0.817	0.106	0.949	0.786	–
N8Y	-0.362	-0.457	-0.598	-0.442	-0.839
N8C	-1.16	-0.567	-0.689	0.702	-1.72
N8I	0.336	-0.345	-1.08	-0.206	-0.873
N8R	-0.438	-0.722	-0.769	-0.235	-1.64
N8M	-0.209	-0.914	-0.794	-0.736	-1.71
N8T	-0.824	-0.941	-1.05	-1.24	-1.35
N8Q	-0.261	-0.33	-0.623	-0.662	-0.897
N8H	-0.602	0.218	-0.743	-0.492	-1.68
N8F	0.797	-0.575	0.492	-0.87	-1.28
N8S	1.5	-0.138	1.03	0.371	-0.139
N8K	0.489	–	0.157	0.619	–
N8W	-0.38	-0.144	-0.94	-1.48	-1.49
N8V	-0.894	-0.782	-1.14	-1.06	-0.656
N3_I4insGS	-1.26	-0.045	-1.37	-0.18	-1.46

Scores whose standard error is large were omitted. Two further conditions of the source, in which the scores hardly spread, are not listed. In variant names, del marks residues removed and ins residues inserted between the two positions. For part of these data: The data file names ogerin without a concentration.
